Out of some 310,000 compounds screened, about 14,000 (4.5%) showed an effect of 50% or more. The effect is printed as a negative number. The list shows a part of the results.
Each molecule was assayed against human ether-à-go-go-related gene (hERG) potassium channel (human, UniProt Q12809) (assay: primary screen, population patch clamp on CHO cells stably expressing hERG).
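Note: peak tail current of the secondary pulse compared with the same well before compound.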

human ether-à-go-go-related gene (hERG) potassium channel, sequence (Q12809 whole entry, looked up): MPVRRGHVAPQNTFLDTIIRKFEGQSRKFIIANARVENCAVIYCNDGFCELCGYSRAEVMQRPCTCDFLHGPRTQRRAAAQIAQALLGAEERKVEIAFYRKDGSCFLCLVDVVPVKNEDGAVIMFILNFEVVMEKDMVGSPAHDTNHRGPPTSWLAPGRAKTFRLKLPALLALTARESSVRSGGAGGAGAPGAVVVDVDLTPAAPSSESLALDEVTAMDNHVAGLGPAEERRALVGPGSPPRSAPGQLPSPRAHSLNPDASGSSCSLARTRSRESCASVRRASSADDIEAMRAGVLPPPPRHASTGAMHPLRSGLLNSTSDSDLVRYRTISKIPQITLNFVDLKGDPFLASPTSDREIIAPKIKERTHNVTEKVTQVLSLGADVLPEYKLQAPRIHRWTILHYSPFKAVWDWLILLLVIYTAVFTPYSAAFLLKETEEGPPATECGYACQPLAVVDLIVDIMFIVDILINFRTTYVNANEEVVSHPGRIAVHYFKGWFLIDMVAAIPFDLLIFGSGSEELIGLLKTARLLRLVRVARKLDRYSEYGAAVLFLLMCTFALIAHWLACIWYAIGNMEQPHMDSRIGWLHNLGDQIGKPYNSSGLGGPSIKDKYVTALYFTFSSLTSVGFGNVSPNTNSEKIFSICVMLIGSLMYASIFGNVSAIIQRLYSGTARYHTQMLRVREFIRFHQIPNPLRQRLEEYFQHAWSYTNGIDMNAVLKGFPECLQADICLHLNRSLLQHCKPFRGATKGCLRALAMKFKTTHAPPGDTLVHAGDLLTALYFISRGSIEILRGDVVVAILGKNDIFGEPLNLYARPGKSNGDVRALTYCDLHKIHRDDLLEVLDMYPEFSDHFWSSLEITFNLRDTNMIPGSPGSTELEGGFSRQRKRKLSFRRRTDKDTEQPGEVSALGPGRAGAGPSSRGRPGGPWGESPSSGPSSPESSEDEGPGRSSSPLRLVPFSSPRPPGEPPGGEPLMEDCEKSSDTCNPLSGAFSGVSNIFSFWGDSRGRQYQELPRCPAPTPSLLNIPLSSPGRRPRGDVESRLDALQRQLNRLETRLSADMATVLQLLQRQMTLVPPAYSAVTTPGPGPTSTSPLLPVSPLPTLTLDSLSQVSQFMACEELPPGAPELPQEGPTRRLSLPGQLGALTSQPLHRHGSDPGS

Row | Structure (SMILES) | hERG current change (%, negative = inhibition) at 10uM [%]
1 | C/C(=N/NC(=O)CNC(=O)Cc1ccccc1)c1ccco1 | 0.676
2 | Cc1ccc(C)c(N(CC(=O)N/N=C/c2ccc(-c3ccc([N+](=O)[O-])cc3)o2)S(=O)(=O)c2ccccc2)c1 | 11.5
3 | COc1cccc(C(CNC(=O)C(c2ccccc2)c2ccccc2)N(C)C)c1 (stereo not shown) | 18.7
4 | Cc1ccc(OC(=O)c2ccc([N+](=O)[O-])cc2Cl)cn1 | 7.37
5 | COc1ccccc1NC(=O)Nc1nc(CC(=O)NCc2ccc(F)cc2)cs1 | -11.4
6 | COc1ccc(/C(C)=N\NC(=O)C(c2ccncc2)N2CCOCC2)cc1 (stereo not shown) | 19.1
7 | O=C(COC(=O)c1ccc(O)cc1)Nc1ccccc1 | 22.4
8 | Cn1c2ccccc2c(=O)c2cc(C#Cc3ccc(N)cc3)ccc21 | 11.9
9 | CCOC(=O)c1sc(N(Cc2ccccc2)C(=O)COC(=O)c2ccccc2O)nc1C | -5.14
10 | CC(=O)NC(CC(=O)N(C)C1CCCCC1)c1ccccc1 (stereo not shown) | 11.2
11 | CC(=O)c1ccc(N(C)C)c2c(N(C)C)cccc12 | -36.6
12 | O=C(NCc1ccco1)C1Cc2ccccc2CN1S(=O)(=O)c1ccccc1F (stereo not shown) | -16.4
13 | Fc1ccc(C2=CCN(C(c3ccc(Cl)cc3)c3nnnn3Cc3ccccc3)CC2)cc1 (stereo not shown) | 9.9
14 | CCCCn1c(N)c(N(CC(C)C)C(=O)CSc2ccc3c(c2)OCCO3)c(=O)[nH]c1=O | 9.84
15 | O=C(NCCc1ccc2c(c1)OCCO2)c1ccccc1F | -10.9
16 | CC(C)(C)NC(=O)c1cccc(NC(=O)Cc2cccs2)c1 | -16.7
17 | CC(=O)c1cccc(Nc2nc3ccccc3n3cnnc23)c1 | -2.98
18 | COC(=O)Cn1cc(S(=O)(=O)NCc2ccc(C)cc2)c2cc([N+](=O)[O-])ccc21 | 6.6
19 | N#C/C(=C\c1ccc(N2CCOCC2)cc1)c1ccccc1 | 8.16
20 | CCOC(=O)C1CCN(C(=O)c2cccc(NS(=O)(=O)c3ccc(Br)cc3)c2)CC1 | -39.9
21 | O=C(Cc1ccc(Cl)cc1)NNC(=S)NC(=O)c1cccnc1 | 21.4
22 | Cc1c(OCc2ccc(C(=O)O)cc2)ccc2c(-c3ccccc3)cc(=O)oc12 | 36.8

Row | Structure (SMILES) | hERG current change (%, negative = inhibition) at 10uM [%]
23 | C=CCn1c(O)c(C=NCCN(C)C)c(=O)[nH]c1=O | 6.15
24 | O=C(Nc1ccc(Nc2ccccc2)cc1)c1ccc(Cl)c([N+](=O)[O-])c1 | 10.4
25 | COc1cc2ccccc2cc1-c1nnc(COc2ccccc2)o1 | 12
26 | CC(C)C(=O)Nc1cccc(NC(=S)NC(=O)c2ccc([N+](=O)[O-])cc2)c1 | 4.65
27 | Cc1ccc(NC(=O)COC(=O)C(NS(=O)(=O)c2ccc(Cl)cc2)C(C)O)cc1 (stereo not shown) | -24.3
28 | CC(=O)Nc1ccccc1C(=O)OCc1ccc(F)cc1 | -0.689
29 | CCCN1CCC(NC(=O)CC2C(=O)NCCN2Cc2ccccc2C)CC1 (stereo not shown) | -2.03
30 | O=C(COC(=O)c1ccc(NS(=O)(=O)c2ccc3c(c2)OCCO3)cc1)NC1CCS(=O)(=O)C1 (stereo not shown) | 13.9
31 | CN(C)CCCN(C(=O)c1ccc(S(=O)(=O)N2CCc3ccccc32)cc1)c1nc2ccc(F)cc2s1.Cl | -13.7
32 | CC(C)Cc1ccc(C(C)NC(=O)c2ccc(=O)[nH]c2)cc1 (stereo not shown) | -5.61
33 | COc1ccc(N2CCN(c3nc4ccccc4n3CC(=O)c3ccccc3)CC2)cc1 | -33.4
34 | CCCc1cc(N2CCCC(C(=O)Nc3cc(Cl)ccc3OC)C2)n2ncnc2n1 (stereo not shown) | -70.8
35 | COc1cccc(OCC(=O)NNC(=O)CCc2ccccc2)c1 | 22.6
36 | CN(C(=O)c1cccc(NC(=O)c2ccco2)c1)c1ccccc1 | 13.3
37 | CC(=O)Nc1ccc(NC(=O)c2cccc(C(=O)OC(C)C)n2)cc1 | 14
38 | CC(C)(C)CN1CCNC(=O)C1CC(=O)N1CCC(C(=O)N2CCOCC2)CC1 (stereo not shown) | 2.07
39 | O=C(c1cnsn1)N1CCC(CO)(Cc2ccc(Cl)cc2)CC1 | -43.7
40 | CN1C(=S)SC(N(O)C(=O)NC2CCCCC2)C1(C)C (stereo not shown) | -4.99
41 | Cc1cccc(-c2nnc(-c3ccc(N)cc3)o2)c1 | -1.87
42 | Nc1nc(SCC(=O)NCCOCCO)nc2sc3c(c12)CCCC3 | 4.85
43 | C[C@H](NC(=O)c1nc[nH]c1C(=O)NCCCCCNC(=O)OC(C)(C)C)C(=O)OC(C)(C)C | 4.68

Reference: publication PMC4336329 (PLoS ONE, 2015)
